Laboratory results taken from the RNAGym collection of RNA variant scans (doi:10.7554/elife.90254).
The source gives no read counts; variants with many changes may rest on few reads.

B1: LINE1-full (parent)
chain: UACGUAGGUGGUUUUCCCCUGAUAGUGCUAAGGGGGCCUGGAAGUUUGGACUGGGCAGAGCUCAACACAGCGUGGCAAAGUGGCUGUGGCUAGACUGCCUCUCUGGAUUCCUCGUCACUCAGCAGGGCAUCUCUGAGAGAAAUGCC

Variants of: B1
Assay: self-cleavage, relative activity (ratio to wild type); higher = more cleavage; in vitro, sequencing; the parent is a self-cleaving ribozyme

| Variant | self-cleavage |
| --- | --- |
| U14C G41A A121G A141G | 1.27 |
| U14C U45C U73A | 2.63 |
| U14C A30U A142G | 1.01 |
| U14C U45A C51U C71U | 0.74 |
| U14A U39G A117U | 0.91 |
| U14C G74A A117G | 0.9 |
| U14C C18U U45C | 1.02 |
| U14A A64U U81G U102A U132C | 0.39 |
| U14C A42G U115C A124U | 0 |
| U14A G58C U104C A136G | 0.03 |
| U14C A79U U96C | 0.2 |
| U14C U15A A42G G82A | 1.13 |
| U14A U39C U87A | 0.03 |
| U14C U23C G32U | 0.61 |
| U14C A22U U52A C133A | 1.03 |
| U14C A22G G144A | 1.36 |
| U14C C19U A65G U85A A138G A140G | 0 |
| U14C G49U U109C U112C | 2.3 |
| U14C U26C U87C U91A | 0 |
| U14C A65C A79G G114A U132G | 0.07 |
| U14C U45C G49U A121G | 2.68 |
| U14C G35A U87A | 0.11 |
| U14C A22G A77U | 1.05 |
| U14C A92G G93A U112C A124U | 0 |

| Variant | self-cleavage |
| --- | --- |
| U14A C19U U26A | 1.07 |
| U14C A65G U104A | 0.09 |
| U14C U15C A141G | 1.61 |
| U14C A22U A107G U109A U112C A142G | 1.19 |
| U14C A57U A67U U104C | 0 |
| U14C U20A A79G U134G | 0.61 |
| U14C U26A U134A | 0.38 |
| U13C U73C C84A U87A G89C A142G | 0.08 |
| U14C A22G U100C U115C | 0.51 |
| U14C U20C A67U | 0.3 |
| U14C U15C U130C | 0.6 |
| U14A U15C C17U | 0.84 |
| U14C U29C A43G A57G A107G | 0 |
| U14C G72A A117G A141G | 1.18 |
| U14C A65G A77U G86A G106A | 0.04 |
| U14C U39A A107G U115C | 1.84 |
| U14C A24U U52A A141G | 0.49 |
| U14A G53U A64G U119C | 0.11 |
| U14C C56A A124U | 0.04 |
| U14C A24G G48A A65G A94U A117G A136G | 0 |
| U14C A50U A57G U62C G86A | 0.07 |
| U14C A50G C68U A77G G82A | 0.11 |
| U14C A59G U62C A124G | 0 |
| U14C U39C A59U | 0.5 |

| Variant | self-cleavage |
| --- | --- |
| U14C G21A A50C | 0.72 |
| U14C A65U U115C | 0.1 |
| U14A A78G C98G A138G | 0.11 |
| U14C A64G A124U | 0.25 |
| U13C U108C A129U | 0.6 |
| U14C U23A G83A A92G | 0.15 |
| U14C G36A U100A G114C | 0.44 |
| U14A U115C U130C | 0.88 |
| U14C U29C U134A | 0.14 |
| U14C A57G U81C G125U A129G A142G | 2.07 |
| U14A A50G A79G C99U | 0.15 |
| U13G A31U U46C | 1.21 |
| U14A C19A U20C | 0.96 |
| U14C U45C A64G G106U | 0.19 |
| U13C U108A U112A | 1.28 |
| U14A U112A A117G | 1.84 |
| U14A U26C G60A A121U | 0.05 |
| U14A A64U U112C | 0.38 |
| U14A A22G U73G | 0.74 |
| U14C G35A U81A | 1.9 |
| U14C U29C U100A | 1.58 |
| U14C U29A A107U | 0.55 |
| U14C C38A U104C A141G | 1.05 |
| U13C U104C C116A | 1.62 |

| Variant | self-cleavage |
| --- | --- |
| U14C U26C A59G A69G A78U | 0 |
| U14C U26C A42G A59G U108C G127A | 0.44 |
| U14C A22G U29C G58A U62A A124U | 0.08 |
| U14A U15C U47C A117U | 0.91 |
| U13C U108G A138U | 2.3 |
| U14C G35U A138G | 1.05 |
| U14A U52C U112C | 1.23 |
| U14C G32A A42G G137A | 1.15 |
| U14C A79G A136U A138G | 0.78 |
| U14C A117U A141U | 1.47 |
| U14C U20A U85C A141G | 0.34 |
| U14A U81A U102C | 1.78 |
| U14A U15C U73A A79U G89A U115C | 0.12 |
| U14C A31U U39A A142G | 0.64 |
| U14A C68U U108C | 0.41 |
| U14C C56U U130A A140G | 0.13 |
| U14A U85C U130C | 0 |
| U14C A69U A117U U130A | 0.1 |
| U14A A43G A57C G125C | 0.08 |
| U13C U87C A140G | 0.15 |
| U14C A50G U96C A138G | 0 |
| U14C A43C U87A U132C | 0 |
| U14C A67U U91C U134A | 0.06 |
| U14C A79G U96C C103U U132C | 0.19 |

| Variant | self-cleavage |
| --- | --- |
| U14C A57U U109C | 0.02 |
| U13C U96A U104A | 0.03 |
| U14C A117G U143C | 2.4 |
| U13G C84U A142G | 0.18 |
| U14C G32U A78G | 0.88 |
| U14A A77U A94G | 0.23 |
| U14C A24U U96A | 0.16 |
| U14C G35C U46C | 0.78 |
| U14C C51U A57U A59G C84U U134C A141G | 0.05 |
| U14C A43G C76A | 1.71 |
| U13C U87A U100C | 0.55 |
| U13G A50G A77U A79G | 0 |
| U14C U39C A141G | 0.68 |
| U14C A42G U104A | 0.57 |
| U14A G48U A136G | 1.84 |
| U14A A67G A138G | 0.44 |
| U14C A24G A94U U143C | 0.52 |
| U14C G33C U46C A138G | 0.9 |
| U14A U104A A142G | 0.82 |
| U14C U20A U47G | 1 |
| U14C U29A U45C U85C A141G | 0.46 |
| U14C A30U U102C U104C | 2.3 |
| U14A U109A A138G | 0.56 |
| U14C C98U C103U C133A | 0.39 |

| Variant | self-cleavage |
| --- | --- |
| U14C A22G A92U U96C | 0.25 |
| U14A U46C U115C | 1.84 |
| U14C A42G U46A | 1.31 |
| U14C A65G A136G | 0.22 |
| U13C U102C A129G | 0.68 |
| U14C A22G A65U A107U A124G U130C | 0.24 |
| U14C G72A U130A | 1.46 |
| U13C U96C U104A A136U | 0.23 |
| U14C G25A U132C | 1.21 |
| U14A A24G U45A A67G A79U U134C | 0.32 |
| U14A U85C U112C | 0.33 |
| U14C U45C U46C A77U | 1.99 |
| U14C A50G A140U A142G | 0 |
| U14C U23C U39C A59G | 0 |
| U13C U100C C113U | 1.44 |
| U14C U15C A57U A140G | 0.23 |
| U14C A136G G137U U143C | 0.93 |
| U14C G55A G83A A142G U143A | 0.06 |
| U14C U45C C76U | 1.91 |
| U14C A50C A64U A77G C95U A136U A138G | 0.05 |
| U14C A94G U108C | 0 |
| U14A U96C A136G | 0.05 |
| U14C U45A A57C U134C | 0.22 |
| U14A G27A U100C U104A | 1.41 |

| Variant | self-cleavage |
| --- | --- |
| U13G U14C A78G | 0.88 |
| U14A A79G U100C | 1.77 |
| U14C U39A A121C | 1.46 |
| U14A A65G A94G U109C | 0 |
| U14C A67U U130C | 0.2 |
| U14C A31G A65U G74A U102C A107G C118U | 0.09 |
| U14C A77G U81A U132C | 2.68 |
| U13C U115A A124U | 1.37 |
| U13G A94G A124U A142U | 0 |
| U14C C66A A67G | 0.05 |
| U14C C28U U52C A117G A141U | 0.36 |
| U14C C17A C38A | 1.25 |
| U14A U96C A138G | 0.45 |
| U14A A22G U26C A78G | 0 |
| U14C C66A U102C | 0.04 |
| U14A A69G U108C | 0.31 |
| U14C G35A A59G G75C C76U U102A | 0.05 |
| U14C A43G U62C A94G G105A A142G | 0 |
| U13C U119C A129G | 0 |
| U14C U39A A69C | 0.16 |
| U14C A22G A31U A69G U85A U134C | 0.16 |
| U14C A42G U91C C116U | 1.1 |
| U14C A43G U73C A77G A129G | 0.92 |
